Test results as given in PubChem BioAssay AID1159614 (National Center for Advancing Translational Sciences (NCATS), 2016).
Among all 45,000 compounds or so, about 65 (0.1%) were called active. Calls follow the shape of the dose curve; as a rule, active = well fitted activation curve with a large enough effect; inconclusive = small, poorly fitted or top-dose-only effect; inactive = no such curve, though single readings can be large or run the other way. The list shows a part of the results.

The molecules below were run against Galactocerebrosidase (Homo sapiens) (UniProt P54803) (assay: A Novel Cell-Based Assay to Identify Small Molecules for B -Galactocerebrosidase). Settings: 145M-Twi-hGALC-G270D cells (Twitcher mouse brain line with human GALC G270D), HMU-beta-Gal fluorescence, 48 h; series mostly up to 57.5 µM; activation: at the top concentration.
Summary of the method: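 Mutant human GALC (G270D), stably expressed in a Twitcher mouse brain cell line lacking endogenous GALC, is measured in live-treated cells via 6-hexadecanoylamino-4-methylumbelliferyl-β-galactoside hydrolysis (0.1 mM final, pH 5.2) with fluorescent detection.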
Also: 0% is about no effect; nearly all actives have a fitted effect of over 65% in size.

UniProt P54803, sequence (P54803 whole entry, looked up): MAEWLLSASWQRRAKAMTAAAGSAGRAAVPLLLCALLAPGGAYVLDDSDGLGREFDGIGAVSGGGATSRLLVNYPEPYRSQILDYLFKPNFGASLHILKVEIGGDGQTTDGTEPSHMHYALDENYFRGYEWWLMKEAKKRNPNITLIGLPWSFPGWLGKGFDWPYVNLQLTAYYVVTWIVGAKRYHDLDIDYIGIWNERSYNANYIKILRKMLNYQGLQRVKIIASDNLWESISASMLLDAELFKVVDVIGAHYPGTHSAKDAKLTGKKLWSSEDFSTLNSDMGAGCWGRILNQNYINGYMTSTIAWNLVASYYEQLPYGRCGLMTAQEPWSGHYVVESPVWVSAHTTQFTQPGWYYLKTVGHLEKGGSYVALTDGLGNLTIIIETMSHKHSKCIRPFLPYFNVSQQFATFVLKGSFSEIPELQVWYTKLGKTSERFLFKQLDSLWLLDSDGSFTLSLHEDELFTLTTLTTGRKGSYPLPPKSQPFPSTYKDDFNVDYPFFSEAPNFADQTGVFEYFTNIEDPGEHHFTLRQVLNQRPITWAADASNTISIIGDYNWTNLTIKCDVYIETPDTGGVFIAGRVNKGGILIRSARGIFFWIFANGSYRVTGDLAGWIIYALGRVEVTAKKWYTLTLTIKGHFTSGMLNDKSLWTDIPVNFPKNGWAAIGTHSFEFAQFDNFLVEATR

activation, inactive:
CCC(=O)N1CCc2cc(S(=O)(=O)N(C)c3cccc(C)c3)ccc21 -15.4%
CCOc1ccccc1N(C)C(=O)Cn1nc(Cc2cccnc2)c2ccccc2c1=O -14.4%
CCOc1ccccc1N1CC(c2nc3ccccc3n2CCOc2ccc(C(C)(C)C)cc2)CC1=O (stereo not given) -11.9%
CCN(c1cc(C)cc(C)c1)S(=O)(=O)c1nnc(NC(=O)c2cccc(F)c2)s1 -14.7%
Cc1ccccc1NC(=O)c1sc2nc(N3CCOCC3)c3c(c2c1N)CC(C)(C)OC3 -18.1%
Cc1ccc(NC(=O)/C(C#N)=C\c2ccc(Cl)cc2Cl)cc1C 1.47%
COc1ccc2c(c1)c1c(c(=O)n(CCc3ccccc3)c(=O)n1Cc1ccc(Cl)cc1)n2C -3.24%
COc1cc(NC(=O)N2CCN(c3cc(-c4noc(C)n4)ccc3C)CC2)cc(OC)c1OC -18.9%
CCN(CC)CCNC(=O)c1cc2c(=O)[nH]c3ccc(C)cc3c2s1 4.91%
CC(C)c1ccccc1NC(=O)CSc1nnc(COc2ccccc2Cl)o1 -20.5%
CCN(c1ccc(C)cc1)S(=O)(=O)c1nnc(NC(=O)c2cccs2)s1 -16.5%
CCOc1ccccc1NC(=O)N1CCN(S(=O)(=O)c2ccc3c(ccn3C)c2)CC1 -1.01%
COc1ccccc1CNC(=O)Cn1ncc2c(C)n(Cc3ccccc3Cl)c(C)c2c1=O -2.52%
Nc1c(-c2nc(-c3ccccc3)no2)nnn1CC(=O)Nc1ccccc1 -15.1%
Cc1ccc(-c2ccc(CCC(=O)O)n2-c2ccc(C(C)C)cc2)cc1 -7.58%
O=C(NCC(c1ccc2c(c1)OCO2)N1CCN(c2ccccc2)CC1)C(=O)Nc1cccc(F)c1 (stereo not given) -11.3%
Cc1ccc(CSC2=Nc3ccccc3C3=NC(CCC(=O)NCc4cccs4)C(=O)N23)cc1 (stereo not given) -19.7%
CCN(CCCNC(=O)c1ccc(Sc2ccc(F)cc2)c(NC(C)=O)c1)c1ccccc1 -5.62%
COc1ccc(CNC(=O)Cn2c(=O)nc(-c3ccccc3F)c3cc(Cl)ccc32)cc1 -8.14%
CCN(CC)C(=O)CSc1nc2cc3c(cc2c(=O)n1CCCCCC(=O)NCc1ccc(OC)cc1)OCO3 -6.52%
O=C(NCc1ccc2c(c1)OCO2)c1ccc2c(c1)N(Cc1cccc(Cl)c1)C(=O)c1ccccc1S2=O (stereo not given) -16.7%
Cc1c(Cl)cccc1NC(=O)C1CCCN(c2nnc(-n3c(C)ccc3C)s2)C1 (stereo not given) -6.49%
CC1CCCN(c2nc3c(S(=O)(=O)c4ccc(C(C)C)cc4)nnn3c3ccsc23)C1 (stereo not given) -5.13%
COc1ccc(C2=C(C)C(=O)N(Cc3ccc(C(=O)Nc4cccc(F)c4)cc3)S2(=O)=O)cc1 -6.84%
Cc1ccc(-c2nc3c(C)cccn3c2Nc2ccccc2C)s1 -10.3%
Cc1ccc(F)cc1NC(=O)Cn1c(=O)nc(-c2ccccc2F)c2cc(Cl)ccc21 -17.2%
CCCC1=Nc2cc(C(=O)NCCc3ccc(OCC)cc3)ccc2Sc2ccccc21 -13%
COc1ccc(-c2csc(-c3nc(-c4ccc(Br)s4)cs3)n2)cc1F -11.6%
COc1ccccc1C(=O)NCc1nnnn1-c1ccc(C)c(C)c1 -2.83%
CCC1CCCCN1CCCNC(=O)c1c(O)nc2ccccn2c1=O (stereo not given) -8.21%
COc1cccc(CN2C(=O)c3ccccc3Sc3ccc(C(=O)NCCc4ccc(C)cc4)cc32)c1 -8%
CCCCCCCC/C=C\CCCCCCCC(=O)NCc1ccc(O)c(OC)c1 -10%
N#Cc1ccccc1NC(=O)CSc1ncn[nH]1 -8.36%
Cc1cccc(NC(=O)Cn2cc(C(=O)C3CCCCC3)c3ccccc32)c1C -64.3%
COc1ccccc1C(=O)N1CCCCC1CCN1CCOCC1 (stereo not given) -11.3%
O=C(Nc1ccc(-c2nc3cc(NC(=O)c4ccccc4F)ccc3o2)cc1)c1ccccc1F -10.5%
CN1C(=O)Cc2cc(S(=O)(=O)N3CCN(c4cccc(C(F)(F)F)c4)CC3)ccc21 -23.1%
Cc1ccc(C)c(NC(=O)c2nc(S(C)(=O)=O)ncc2N(Cc2ccc(C(C)(C)C)cc2)Cc2ccco2)c1 -2.04%
CCOc1ccc(C(=O)CSc2nc3cc(C(=O)NC4CCCC4)ccc3c(=O)n2CC2CCCO2)cc1 (stereo not given) -8.37%
CC(=O)c1ccc(NC(=O)c2ccc3c(c2)nnn3C2CCCC2)cc1 -18%
Cc1cccc(C(=O)Nc2ccc(C(=O)OCc3cc(=O)n4c5c(sc4n3)CCCC5)cc2)c1 -1.82%
Cc1ccc(CNC(=O)C(=O)NCC(c2cccnc2)N2CCN(c3ccc(F)cc3)CC2)cc1 (stereo not given) -11.4%
O=C(NCc1ccccc1)c1cc2sccc2n1Cc1ccc(F)cc1 -36.9%
CCOc1ccc(C(=O)c2cn(CC(=O)Nc3ccc4c(c3)OCCO4)c3ccc(OC)cc3c2=O)cc1 -5.68%
CCCc1nn2c(=O)cc(COC(=O)c3cccs3)nc2s1 -5.84%
COc1ccccc1NC(=O)c1sc2nc(C)c(C(=O)Nc3ccc(C)cc3C)c(-c3ccc(Br)cc3)c2c1N -13.1%
Cc1ccccc1CNC(=O)Cn1ccc2cc(S(=O)(=O)N3CCCCC3)ccc21 2.36%
Cn1c(=O)c2c(nc(Oc3ccc(F)cc3)n2Cc2ccc(F)cc2)n(C)c1=O -24.2%
Cc1ccc(C(=O)OCc2cc(=O)n3nc(-c4cccs4)sc3n2)cc1 -16.3%
Cc1ccccc1C(=O)OCc1cc(=O)n2nc(C3CC3)sc2n1 2.51%
CCOC(=O)c1c(S(=O)(=O)NCC(=O)Nc2cc(C)ccc2OC)c(C)n(C)c1C -20.8%
COc1ccc(NC(=O)CSc2nc3ccccc3nc2Cc2ccc(C)cc2)cc1Cl 3.16%
CCOc1ccc(CCn2c3c(c(=O)[nH]c2=O)C(NC(=O)c2ccccc2)(C(F)(F)F)C(=O)N3)cc1OCC (stereo not given) -18.6%
CCCCCn1c(=O)[nH]c2cc(C(=O)N3CCN(c4cc(Cl)ccc4C)CC3)ccc2c1=O -11.1%
CCOC(=O)N1CCC(NC(=O)c2ccc3c(c2)N(Cc2cc(C)ccc2C)C(=O)c2ccccc2S3(=O)=O)CC1 -15.9%
Cc1nc(-c2ccccc2)sc1-c1ccc(SCC(=O)NCc2ccccc2)nn1 -14.1%
CCOC(=O)c1ccc(Nc2nc3nonc3nc2Nc2cccc(C)c2C)cc1 -14.8%
O=C(Cn1cc(SCc2ccccc2F)c2ccccc21)N1CCCCCC1 -14.4%
CCN(CC)c1ccc2cc(-c3nc(-c4ccc(Cl)cc4Cl)cs3)c(=O)oc2c1 -18.4%
CCOC(=O)CSC1=Nc2ccccc2C2=NC(CCC(=O)NCc3ccc(OC)cc3)C(=O)N12 (stereo not given) -20.2%
